Assay results taken from PubChem BioAssay AID493208 (National Center for Advancing Translational Sciences (NCATS), 2011).
The campaign covered roughly 44,000 compounds. About 340 (0.77%) were called active. Another 5% or so got no clear call; they are omitted. Calls follow the shape of the dose curve; as a rule, active = well fitted inhibition curve with a large enough effect; inconclusive = small, poorly fitted or top-dose-only effect; inactive = flat fitted curve, though single readings scatter. Some of the results follow.

Experiment: Acumen qHTS Assay for Inhibitors of the mTORC1 Signaling Pathway in MEF (Tsc2-/-, p53-/-) Cells: Sytravon;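 also: plate controls were DMSO for no effect and rapamycin for full effect; nearly all actives have a fitted effect of over 50% in size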
Settings: phospho-rpS6 immunofluorescence/PI, 24 h; series mostly up to 38.3 µM; activity change, negative = inhibition: at the top concentration
Procedure, shortened: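 Cell-based qHTS: Tsc2-/- p53-/- MEF, 24 h cpd, 37 °C; fix/perm, anti-phospho-S6 Alexa-488 + PI; Acumen 488 nm scan; pS6/PI ratio, % positive cells; rapamycin 7.5 nM = inhibition ref; PI count = viability.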

Compound	activity change, negative = inhibition
Cc1c(Cl)cccc1NC(c1ccc(F)cc1)c1nnc(-c2ccccc2)o1 (stereo unspecified)	inactive: -3.5%
COc1ccc(C2=C(N3CCN(c4cc(C)ccc4C)CC3)c3ccccc3C2=O)cc1	inactive: -0.4%
CCc1ccc(-n2c(=O)c3sc4ccccc4c3n(CC(=O)NCc3ccccc3)c2=O)cc1	inactive: -3.76%
O=C(c1ccc2c(c1)N(Cc1cccc(F)c1)C(=O)c1ccccc1S2)N1CCC2(CC1)OCCO2	inactive: 0.877%
O=C(Cn1cccc1C(=O)c1ccccc1)NCc1ccccc1Cl	inactive: -9.09%
O=C(Nc1cccnc1)c1cc(-c2ccc(Cl)cc2)on1	inactive: -27.4%
Cc1ccc(-n2c(=O)c3c4c(sc3n(CC(=O)Nc3cccc(Cl)c3)c2=O)CCCCC4)cc1C	inactive: 3.8%
Cc1cccc(C)c1OCC(=O)NC(Cc1c[nH]c2ccccc12)C(=O)O (stereo unspecified)	inactive: -2.29%
Cc1ccc(S(=O)(=O)NCc2nc3nc(C)cc(C)n3n2)cc1	inactive: -7.64%
Cc1ccc(C)c(CN2CCCN(CC(=O)Nc3ccc(C)c(C)c3)S2(=O)=O)c1	inactive: -8.79%
COc1cc(Cl)c(C)cc1NC(=O)CCc1nc2cccnc2n1Cc1cccs1	inactive: -12.6%
Cn1cc(C(=O)NCc2ccccc2Cl)c(=O)c2cc(S(=O)(=O)N3CCCCCC3)ccc21	inactive: -3.9%
CCOC(=O)c1c(S(=O)(=O)N2CCC(C(=O)N3CCN(c4ccccc4F)CC3)CC2)c(C)n(C)c1C	inactive: -4.86%
CC(C)N(Cc1ccccc1)C(=O)Cn1ncc2c3ccccc3n(Cc3ccccc3)c2c1=O	inactive: -12%
CCOC(=O)c1ccc(NC(=O)CCCn2c(=O)c3cccn3c3cccnc32)cc1	inactive: -2.45%
Cc1cccc(Cn2c(SCc3ccc(C(=O)NC4CCCC4)cc3)nc3cccnc32)c1	inactive: -2.52%
Cc1nn(-c2ccc(Cl)cc2)c2nc(-c3cccnc3)cc(C(F)(F)F)c12	inactive: 0.826%
COc1ccc(NC(=O)C2CCN(S(=O)(=O)c3c(C)noc3/C=C/c3cccs3)CC2)cc1	inactive: 7.22%
COc1ccc(OC)c(CNC(=O)c2ccc(NC(=O)c3nsc4ccccc34)cc2)c1	inactive: 1.41%
Cc1ccccc1OCCCCn1c(CCNC(=O)C(C)(C)C)nc2ccccc21	inactive: -6.1%
COc1ccc(OC)c(S(=O)(=O)NCC(c2ccco2)S(=O)(=O)c2ccccc2)c1 (stereo unspecified)	inactive: -3.22%

Compound	activity change, negative = inhibition
CCn1cc(S(=O)(=O)c2cccc(Cl)c2)c(=O)c2cc(F)c(N3CCN(C)CC3)cc21	inactive: -12.7%
CN(Cc1ccccc1)C(=O)CCS(=O)(=O)c1ccc2c(c1)oc(=O)n2C	inactive: -2.84%
COC(=O)c1ccccc1NC(=O)c1ccc(-c2nc(CSc3ccc(C)cc3)c(C)o2)cc1	inactive: 0.0211%
O=S(=O)(Nc1ccc(C(F)(F)F)cc1)c1ccc2c(c1)OCCO2	inactive: 4.15%
COc1ccccc1N1CCN(Cc2nnc(-c3ccccc3C)o2)CC1	inactive: 2.41%
COCCCn1c(=O)c2sccc2n2c(CCCC(=O)Nc3cccc(C(F)(F)F)c3)nnc12	inactive: 3.49%
CCOC(=O)c1cccc(NC(=O)c2ccc3nc(CCc4ccccc4)oc3c2)c1	inactive: 0.666%
O=C(c1ccc2c(c1)N(Cc1ccc(Cl)cc1)C(=O)c1ccccc1S2=O)N1CCC(Cc2ccccc2)CC1 (stereo unspecified)	inactive: -9.38%
O=C(NCCCc1nc2ccccc2n1Cc1cccc(Cl)c1)C1CCCCC1	inactive: -6.79%
Cc1ccccc1OCC(=O)Nc1ccc2nc(SCC(N)=O)sc2c1	inactive: -2.74%
CCCCOC(=O)c1ccc(NC(=O)c2csnn2)cc1	inactive: -0.594%
CC1=C(C(=O)Nc2ccccc2)C(c2ccc[nH]2)n2ncnc2N1 (stereo unspecified)	inactive: 6.75%
COC(=O)c1ccc(NC(=O)C(=O)NCC(c2cccnc2)N2CCc3ccccc32)cc1 (stereo unspecified)	inactive: 7.01%
Cc1c(NC(=O)c2sc3ccccc3c2Cl)cccc1-c1nc2ccccc2o1	inactive: -11.6%
Cc1c(Cl)cccc1NC(=O)Cn1nnc(-c2nc(-c3ccccc3)no2)c1N	inactive: -9.88%
CCCOc1ccc(C(=O)Nc2ccc3oc(-c4ccc(N(C)C)cc4)nc3c2)cc1	inactive: 7.67%
Cc1cccc(C)c1NC(=O)CSc1nc2ccccc2c2nc(CCc3c(C)n[nH]c3C)nn12	inactive: -5.87%
CCn1cc(C(=O)NCCc2ccc(C)cc2)c(=O)c2cc(S(=O)(=O)N3CCC(C)CC3)ccc21	inactive: -0.695%
CCCOc1ccc(OC(=O)c2cn(-c3ccc(OC)cc3)c(=O)c3ccccc23)cc1	inactive: -8.18%
CCOc1ccccc1NC(=O)C1=C(C)Nc2ncnn2C1c1cccs1 (stereo unspecified)	inactive: -22.3%
Cc1cccc(N2CCN(C(=O)c3ccc4c(Cl)c5c(nc4c3)CCCC5)CC2)c1C	inactive: 1.39%

Compound	activity change, negative = inhibition
COc1cccc(-c2nn3c(=O)cc(CN4CCN(C(=O)/C=C/c5ccccc5)CC4)nc3s2)c1	inactive: 7.75%
COc1cc(NC(=O)c2nc3ccccc3n(C)c2=O)cc(OC)c1OC	inactive: -3.63%
Cc1ccc(CCNC(=O)CCS(=O)(=O)c2cc3c(cc2Cl)NC(=O)CO3)cc1	inactive: 7.25%
CC(C)NC(=O)CN1C(=O)c2cccnc2Sc2ccccc21	inactive: 1.54%
CC(=O)c1cccc(NC(=O)c2cc(C)nc3c2c(C)nn3-c2cccc(Cl)c2C)c1	inactive: -0.568%
O=C(OCc1cc(=O)n2nc(C3CC3)sc2n1)c1ccccc1Cl	inactive: -9.67%
Cc1ccc(-c2nc(-c3cc4cccc(OCc5ccccc5F)c4oc3=O)no2)cc1	inactive: 0.486%
Cc1ccc(NC(=O)Cn2c(=O)n(Cc3ccc(C(=O)NCc4ccc5c(c4)OCO5)cc3)c(=O)c3ccccc32)cc1	inactive: -9.33%
COc1ccc(NC(=O)c2csnn2)cc1	inactive: -18.5%
CCOc1ccc(CNC(=O)CCS(=O)(=O)c2ccc3c(c2)oc(=O)n3C)cc1	inactive: 5.53%
COc1cc(NC(=O)CCS(=O)(=O)c2ccc3c(c2)n(C)c(=O)c(=O)n3C)cc(OC)c1	inactive: 2.02%
Cc1cccc(NC(=O)N2CCN3CCCCC3C2)c1C (stereo unspecified)	inactive: -13.6%
COc1cccc(NC(=O)Cn2c(-c3nonc3N)nc3ccccc32)c1	inactive: 4.37%
COc1ccccc1N1CCN(c2csc3ccccc3c2=O)CC1	inactive: -7.26%
COc1ccccc1CNC(=O)CCCCn1c(=O)c2ccccc2n(CC(=O)Nc2cccc(Cl)c2)c1=O	inactive: -11.3%
COC(=O)c1cc2oc3ccccc3c2n1Cc1ccccc1Cl	inactive: -2.37%
Cc1ccc(-n2ncc3c(N4CCN(c5ccc(F)cc5)CC4)ncnc32)cc1	inactive: 9.44%
COc1ccc2oc(-c3ccc(NC(=O)c4ccc(Cl)cc4Cl)cc3)nc2c1	inactive: -9.25%
COc1ccc(CNC(=O)C(=O)Nc2cccc(C)c2C)cc1	inactive: -17.8%
